Measured values from the supplement of paper PMC9433436.
± gives the standard deviation of the averaged measurements. In all, about 4,100 sequences were measured (“relative kcat/Km (krel) vs genomic leader AAAGAU”: median about 1.7, highest 2% from about 6.5 on). Only a part is listed here, and it is no random draw.

Target: T1, E. coli RNase P holoenzyme (M1 P RNA + rnpA protein) (UniProt P0A7Y8)
T1 sequence: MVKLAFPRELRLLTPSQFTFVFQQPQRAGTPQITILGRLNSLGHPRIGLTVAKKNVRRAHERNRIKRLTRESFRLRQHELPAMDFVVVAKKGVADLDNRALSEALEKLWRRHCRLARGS
Experiment: relative kcat/Km (krel) vs genomic leader AAAGAU (relative (reference leader = 1)); higher = faster RNase P cleavage
Description: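 HTS-Kin: a pool of ptRNA-Met (21C construct) with all 4096 combinations of 5' leader nucleotides N(-6) to N(-1) was processed in vitro by E. coli RNase P (P RNA + rnpA/C5 protein) under multiple-turnover conditions at 37 C, pH 8, 17.5 mM MgCl2. Residual substrate was Illumina-sequenced at several fractions reacted, and relative kcat/Km (krel) was computed by internal competition kinetics, calibrated to the genomic leader (AAAGAU = 1). The listed hexamer is the varied N(-6)..N(-1) leader (DNA letters), and it sits between a fixed 5' stem-loop flank (GCAUGCACGAAAGUGCGUGCUAUGAA) and the mature tRNA-Met starting GGCUACGUAGCUCAGUUGG. Two technical replicates are averaged.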

[1] = fraction of substrate reacted: ~9-10% (9.79% repeat 1, 9.1% repeat 2)
[2] = fraction of substrate reacted: ~13-16% (15.68% repeat 1, 13.17% repeat 2)
[3] = fraction of substrate reacted: ~26-29% (28.66% repeat 1, 26.4% repeat 2)

## CTTCCA
[1]
  relative kcat/Km: 2 ± 0.45
[2]
  relative kcat/Km: 2.15 ± 0.27
[3]
  relative kcat/Km: 1.93 ± 0.68

## GACGGT
[3]
  relative kcat/Km: 1.46 ± 0.94

## CCGTCT
[1]
  relative kcat/Km: 1.57 ± 0.58
[2]
  relative kcat/Km: 2.06 ± 1.2
[3]
  relative kcat/Km: 2.49 ± 0.22

## TGATAG
[1]
  relative kcat/Km: 1.83 ± 1.4
[2]
  relative kcat/Km: 1.89 ± 0.38
[3]
  relative kcat/Km: 3.5 ± 1.5

## CTAAAC
[1]
  relative kcat/Km: 1.46 ± 0.14
[2]
  relative kcat/Km: 2.2 ± 0.18
[3]
  relative kcat/Km: 2.91 ± 0.65

## TTGTCC
[1]
  relative kcat/Km: 2.58 ± 1.1
[2]
  relative kcat/Km: 2.56 ± 0.32
[3]
  relative kcat/Km: 3.87 ± 1

## CTCTTA
[1]
  relative kcat/Km: 2.98 ± 0.098
[2]
  relative kcat/Km: 4.69 ± 1.5
[3]
  relative kcat/Km: 6.21 ± 2.8

## ACATTC
[1]
  relative kcat/Km: 3.18 ± 1.5
[2]
  relative kcat/Km: 3.46 ± 0.18
[3]
  relative kcat/Km: 4.5 ± 1.5

## GATTGC
[1]
  relative kcat/Km: 2.61 ± 0.28
[2]
  relative kcat/Km: 2.9 ± 1.2
[3]
  relative kcat/Km: 4.46 ± 1.8

## CTGCAT
[1]
  relative kcat/Km: 2.54 ± 1.1
[2]
  relative kcat/Km: 2.18 ± 0.43
[3]
  relative kcat/Km: 2.83 ± 0.62

## GAAAAT
[1]
  relative kcat/Km: 1.09 ± 0.25
[2]
  relative kcat/Km: 1.6 ± 0.3
[3]
  relative kcat/Km: 2.25 ± 0.38

## AGCCTA
[1]
  relative kcat/Km: 2.05 ± 0.87
[2]
  relative kcat/Km: 1.97 ± 0.57
[3]
  relative kcat/Km: 2.57 ± 0.69

## TTGTTT
[1]
  relative kcat/Km: 1.63 ± 0.47
[2]
  relative kcat/Km: 1.95 ± 0.49
[3]
  relative kcat/Km: 2.75 ± 0.84

## CCGCCA
[1]
  relative kcat/Km: 1.81 ± 0.4
[2]
  relative kcat/Km: 0.725 ± 0.38
[3]
  relative kcat/Km: 1.26 ± 0.15

## TTACCT
[1]
  relative kcat/Km: 2.13 ± 1.3
[2]
  relative kcat/Km: 2.18 ± 0.87
[3]
  relative kcat/Km: 2.69 ± 1

## CTGCTC
[1]
  relative kcat/Km: 1.68 ± 0.38
[2]
  relative kcat/Km: 1.26 ± 0.57
[3]
  relative kcat/Km: 1.41 ± 0.074

## AGAGGC
[1]
  relative kcat/Km: 0.655 ± 0.65
[2]
  relative kcat/Km: 1.34 ± 1.2
[3]
  relative kcat/Km: 1.75 ± 1.7

## CCGTCC
[1]
  relative kcat/Km: 3.03 ± 1.2
[2]
  relative kcat/Km: 3.13 ± 0.67
[3]
  relative kcat/Km: 4.3 ± 0.5

## TGGTAG
[3]
  relative kcat/Km: 0.538 ± 0.38

## CGTAGC
[1]
  relative kcat/Km: 2.02 ± 0.4
[2]
  relative kcat/Km: 2.9 ± 0.65
[3]
  relative kcat/Km: 3.51 ± 1.3

## AATTGC
[1]
  relative kcat/Km: 1.75 ± 0.96
[2]
  relative kcat/Km: 2.6914 ± 0.001
[3]
  relative kcat/Km: 3.61 ± 0.89

## AATTCA
[1]
  relative kcat/Km: 1.83 ± 1.4
[2]
  relative kcat/Km: 2.06 ± 0.38
[3]
  relative kcat/Km: 2.07 ± 0.43

## CGCGTT
[1]
  relative kcat/Km: 1.3 ± 0.38
[2]
  relative kcat/Km: 1.2 ± 0.61
[3]
  relative kcat/Km: 1.57 ± 0.45

## GTTCTC
[1]
  relative kcat/Km: 1.75 ± 0.3
[2]
  relative kcat/Km: 2.04 ± 0.04
[3]
  relative kcat/Km: 2.54 ± 0.68

## GCCCGG
[1]
  relative kcat/Km: 0.406 ± 0.099
[3]
  relative kcat/Km: 0.437 ± 0.31

## AGTCAA
[1]
  relative kcat/Km: 2.58 ± 0.11
[2]
  relative kcat/Km: 4 ± 1.2
[3]
  relative kcat/Km: 6.05 ± 2.9

## CTAAAG
[1]
  relative kcat/Km: 1.2 ± 0.55
[2]
  relative kcat/Km: 0.877 ± 0.6
[3]
  relative kcat/Km: 2.23 ± 0.5

## CTCTCG
[1]
  relative kcat/Km: 1.91 ± 1.5
[2]
  relative kcat/Km: 1.68 ± 0.37
[3]
  relative kcat/Km: 3.31 ± 0.37

## GGGACC
[2]
  relative kcat/Km: 0.806 ± 0.55
[3]
  relative kcat/Km: 0.61 ± 0.38

## CATAAA
[1]
  relative kcat/Km: 2.33 ± 1.1
[2]
  relative kcat/Km: 2.67 ± 0.12
[3]
  relative kcat/Km: 4.07 ± 1.2

## CTTGTC
[1]
  relative kcat/Km: 0.953 ± 0.22
[2]
  relative kcat/Km: 1.07 ± 0.24
[3]
  relative kcat/Km: 1.38 ± 0.22

## TGTAGA
[1]
  relative kcat/Km: 2.99 ± 0.16
[2]
  relative kcat/Km: 3.99 ± 0.68
[3]
  relative kcat/Km: 6.3 ± 3.2

## CTTCTA
[1]
  relative kcat/Km: 1.8 ± 1.3
[2]
  relative kcat/Km: 1.63 ± 0.3
[3]
  relative kcat/Km: 2.29 ± 0.47

## ACATTG
[3]
  relative kcat/Km: 1.48 ± 0.15

## ATGCCT
[2]
  relative kcat/Km: 1.06 ± 0.34
[3]
  relative kcat/Km: 1.2 ± 0.037

## GAAACA
[1]
  relative kcat/Km: 2.06 ± 2
[2]
  relative kcat/Km: 1.02 ± 0.084
[3]
  relative kcat/Km: 1.42 ± 0.21

## TTAGGT
[3]
  relative kcat/Km: 1.28 ± 1.2

## AAAACT
[1]
  relative kcat/Km: 0.815 ± 0.37
[3]
  relative kcat/Km: 0.972 ± 0.29

## GGTTAC
[1]
  relative kcat/Km: 0.591 ± 0.54
[2]
  relative kcat/Km: 1.09 ± 0.22
[3]
  relative kcat/Km: 2.13 ± 0.98

## GCGAAG
[3]
  relative kcat/Km: 1.25 ± 0.35

## TGCGGA
[1]
  relative kcat/Km: 0.285 ± 0.27
[2]
  relative kcat/Km: 0.896 ± 0.51
[3]
  relative kcat/Km: 1.14 ± 0.52

## TCGCCG
[1]
  relative kcat/Km: 1.88 ± 0.96
[2]
  relative kcat/Km: 1.01 ± 0.4
[3]
  relative kcat/Km: 1.82 ± 0.16

## AAATTA
[1]
  relative kcat/Km: 1.94 ± 0.73
[2]
  relative kcat/Km: 1.69 ± 0.28
[3]
  relative kcat/Km: 1.88 ± 0.53

## GCGCCT
[1]
  relative kcat/Km: 1.18 ± 0.57
[2]
  relative kcat/Km: 0.841 ± 0.28
[3]
  relative kcat/Km: 1.51 ± 0.049

## TTCTTC
[1]
  relative kcat/Km: 4.65 ± 1.6
[2]
  relative kcat/Km: 5.94 ± 0.85
[3]
  relative kcat/Km: 7.95 ± 3.2

## CCATGA
[1]
  relative kcat/Km: 1.89 ± 0.2
[2]
  relative kcat/Km: 2.66 ± 0.45
[3]
  relative kcat/Km: 4.06 ± 1.1

## TGATTG
[2]
  relative kcat/Km: 0.252 ± 0.054
[3]
  relative kcat/Km: 0.752 ± 0.44

## CTGGAC
[1]
  relative kcat/Km: 1.34 ± 0.36
[2]
  relative kcat/Km: 0.646 ± 0.38
[3]
  relative kcat/Km: 0.764 ± 0.28

## ATTACC
[1]
  relative kcat/Km: 1.64 ± 0.48
[2]
  relative kcat/Km: 1.65 ± 0.26
[3]
  relative kcat/Km: 2.21 ± 0.71

## TAGAAT
[1]
  relative kcat/Km: 2.56 ± 0.91
[2]
  relative kcat/Km: 3.58 ± 0.58
[3]
  relative kcat/Km: 5.36 ± 2.3
